From PubChem BioAssay AID686979 (National Center for Advancing Translational Sciences (NCATS), 2013)
The whole screen tested about 420,000 compounds, of which about 50,000 (12%) were called active. Inconclusive results, whose numbers are uncertain, are shown with a selection of clear calls. The call rests on the fitted dose curve; in most records, active means well fitted inhibition curve with a large enough effect; inconclusive means small, poorly fitted or top-dose-only effect; inactive means flat fitted curve, though single readings scatter. Potencies of inconclusive entries are left out as doubtful fits.

Assay: qHTS for Inhibitors of human tyrosyl-DNA phosphodiesterase 1 (TDP1): qHTS in cells in presence of CPT; further: nearly all actives have a fitted effect of over 55% in size
Conditions: chicken DT40 Tdp1-/-;hTDP1 cells + 20 nM CPT, ATP luminescence, 48 h; activity change, negative = growth inhibition: at 46.2 µM (top of the series) unless noted
Method in brief: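 Cell growth measured by CellTiter-Glo luminescence after a minimum 48 h, 37 C compound exposure with 20 nM CPT in Tdp1-knockout DT40 cells stably expressing hTDP1, seeded 400/well; qHTS titration format.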
On the % scale 0 is the no-effect control and ±100 the full control effect; potency means the concentration at half of the fitted maximal effect; tags describe the fitted curve by direction and shape.

Row | Structure (SMILES) | Potency | activity change, negative = growth inhibition
1 | COc1ccc(CNC(=S)Nc2cccc(C)c2C)cc1 | inactive | 
2 | CC1(C(=O)Nc2ccc3c(c2)OCCO3)CCN1C(=O)Cc1ccc(-c2ccccc2)cc1 (stereo unspecified) | inconclusive [inhibitor, single point] | 
3 | C=CCOc1ccc(CC(=O)O)cc1Cl | inactive | 
4 | CC(C(=O)Nc1ccccc1Sc1ccccc1)N(c1ccccc1)S(C)(=O)=O (stereo unspecified) | inconclusive [inhibitor, partial curve] | 
5 | COCCCNc1ncnc2c1cnn2-c1ccc(C)cc1C | inactive | 
6 | Cc1cc(C(=O)N2CCCC(CCC(=O)N3CCN(c4ccccn4)CC3)C2)c(C)o1 (stereo unspecified) | inconclusive [inhibitor, single point] | 
7 | O=C(c1cnn2c(C(F)F)cc(-c3ccccc3)nc12)N1CCOCC1 | inactive | 
8 | CCOc1ccc2nc(NC(=O)c3cccc(N4C(=O)CCC4=O)c3)sc2c1 | inactive | 
9 | O=C(N/N=C/C(Br)=C/c1ccccc1)c1cc(-c2ccco2)[nH]n1 | active: 6.51 µM | 
10 | CCOC(=O)c1cc(C(=O)OCC)c2ccccn2c1=O | inconclusive [inhibitor, partial curve] | 
11 | Cc1ccc(S(=O)(=O)N(C)c2ccc(C(=O)NCC(c3ccco3)N(C)C)cc2)cc1 (stereo unspecified) | inconclusive [inhibitor, single point] | 
12 | O=c1c(C(c2ccc(Br)cc2)c2c(O)nc3n(c2=O)CCS3)c(O)nc2n1CCS2 | inactive | 
13 | Cc1cc(-c2ccc(C)c(S(=O)(=O)N(Cc3cccs3)C(C)C)c2)on1 | inconclusive [inhibitor, single point] | 
14 | CC(C)C(=O)Nc1ccc(NC(=O)c2ccc([N+](=O)[O-])cc2Cl)cc1 | inconclusive [inhibitor, single point] | 
15 | COc1ccc(NC(=O)/C(C#N)=C/c2ccc(C)o2)cc1 | inactive | 
16 | NC(=O)c1ccccc1NC(=O)COC(=O)C1(c2ccccc2)CC1 | inactive | 
17 | CCOC(=O)c1[nH]c2ccccc2c1NC(=O)c1ccc(Br)o1 | inconclusive [inhibitor, single point] | 
18 | COc1cc(F)ccc1-c1cc(C(=O)Nc2ccc(C)c(NS(C)(=O)=O)c2)[nH]n1 | inconclusive [inhibitor, full curve, poor fit] | 
19 | CC(C)(C)OC(=O)Nc1ccccc1-n1nnnc1C(C(=O)c1ccc(F)cc1)N1CCN(c2ccccn2)CC1 (stereo unspecified) | inactive | 
20 | Cn1c(Oc2ccc(F)cc2F)c(C=O)c2ccccc21 | inactive | 
21 | CCCCN(Cc1nc2ccccc2c(=O)[nH]1)C(=O)COc1ccc(F)cc1Cl | active: 18.4 µM | 
22 | Cc1ccc(CNC(=O)C(=O)NCC(c2cccs2)S(=O)(=O)c2cccs2)cc1 (stereo unspecified) | inconclusive [inhibitor, single point] | 
23 | Cc1ncc(S(=O)(=O)C(C)(C)C)c(N)n1 | inactive | 

Row | Structure (SMILES) | Potency | activity change, negative = growth inhibition
24 | COc1ccc(Cn2c(=O)[nH]c3cc(C(=O)N4CCN(c5ccc(OC)cc5)CC4)ccc3c2=O)cc1 | inactive | 
25 | CCOc1cccc(NC(=O)C2CC(=O)NC(=Nc3ccccc3)S2)c1 (stereo unspecified) | inactive | 
26 | CC1CCN(CC(O)COc2ccc(-c3ccccc3)cc2)CC1 (stereo unspecified) | inconclusive [inhibitor, single point] | 
27 | CCOC(=O)c1ccc(NC(=O)c2cnc(N3CCCC3)nc2C)cc1 | inconclusive [inhibitor, partial curve, poor fit] | 
28 | CSCC[C@H](NC(=O)OC(C)(C)C)c1nnc(SCC=C(C)C)o1 | inactive | 
29 | CCOC(=O)CCc1c(C)c2c(C)nn(-c3ccccc3)c2[nH]c1=O | inconclusive [inhibitor, single point] | 
30 | C=CC(=O)c1ccc2ccccc2c1 | active: 2.91 µM | 
31 | COc1ccc(NC2CCCN(C(=O)CCOc3ccccc3)C2)cc1 (stereo unspecified) | inconclusive [inhibitor, partial curve] | 
32 | CCOC(=O)c1[nH]c2c(c1Cc1ccccc1)C(=O)CC(c1ccc(OC)cc1)C2 (stereo unspecified) | active: 20.6 µM | 
33 | CCCCCCOc1ccc(/C(C)=N/NC2=NCCN2)cc1 | inconclusive [inhibitor, single point] | 
34 | CC(=O)CCS(=O)(=O)c1ccc(Oc2ccc(S(=O)(=O)CCC(C)=O)cc2)cc1 | active: 3.66 µM | 
35 | O=C(O)c1ccc(NC(=S)NCc2ccccc2)cc1 | inconclusive [inhibitor, single point] | 
36 | O=C(O)CSCC(=O)N1CCN(Cc2ccc3c(c2)OCO3)CC1 | inactive | 
37 | Cc1cc(Cl)ccc1OC(C)C(=O)Nc1ccc([N+](=O)[O-])cn1 (stereo unspecified) | inconclusive [inhibitor, single point] | 
38 | CCc1ccc(NC(=O)CSC2=Nc3ccccc3C3=NC(CC(=O)NCc4ccc5c(c4)OCO5)C(=O)N23)cc1 (stereo unspecified) | inconclusive [inhibitor, single point] | 
39 | COc1ccccc1C#Cc1cnc2c(c1)C(=O)N([C@H](C)CO)C[C@@H](C)[C@@H](CN(C)C(=O)c1ccc3c(c1)OCO3)O2 |  | inconclusive: -32% [inhibitor]
40 | COc1ccc(-c2cc(CCC(=O)N3CCN(c4cc(C)ccc4C)CC3)[nH]n2)cc1 | inconclusive [inhibitor, single point] | 
41 | COc1ccc(C/C(C)=N/NC(=S)Nc2ccc(C(C)C)cc2)cc1 | inconclusive [inhibitor, single point] | 
42 | COc1cccc(N2CCN(C(=O)CN3C(=O)NC(C)(c4ccc5ccccc5c4)C3=O)CC2)c1 (stereo unspecified) | active: 13 µM | 
43 | OCCN1CCN(CC#CCn2c3ccccc3c3ccccc32)CC1 | inconclusive [inhibitor, single point] | 
44 | Cc1cc([N+](C)(C)C)cc(C)c1/C=C/c1ccnc2ccccc12 | active: 3.55 µM | 
45 | CN(C)c1ccc(NC(=O)Cn2c(SCc3ccc(F)cc3)nc3cccnc32)cc1 | inconclusive [inhibitor, partial curve] | 
46 | Cc1nc(/N=C(\N)NC(=O)N2c3ccccc3Sc3ccccc32)nc2ccccc12 | inconclusive [inhibitor, single point] | 
